From the supplement of paper PMC11417369
The list shows a part of the results.

The sequences below were run on PfSIP2 AP2 domain 1 (GST-tagged) (assay: gcPBM binding intensity (ln(normalized median fluorescence intensity)); higher = stronger DNA binding).
How it was run: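 The highest Masliner-normalised natural-log median intensity across replicate spots of either probe orientation is reported as binding intensity. GST-tagged P. falciparum DNA-binding domains expressed in E. coli were applied for 1 h to an Agilent 4 × 180k array of primer-extended double-stranded 36-bp intergenic genomic probes plus negative controls, and bound protein was detected with Alexa488 anti-GST antibody and scanned at 488 nm.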

Sequence | gcPBM binding intensity (ln)
ATATGTTTTTTTTTTTTTTTTTAATTTGTCATAAAT [CACACA_negctrl_site1208] | 7.02
TCTTTCAATATTAATGCATGTTAATAATAAATTTTA [TGCATGCA_site448] | 6.89
TGAACAATATATAATAGTACATATTTATTTTTTTCT [XGTACX_site4256] | 6.72
TAAAGATGAAATATCACACATATATAAATATATAAA [CACACA_site4580] | 6.69
ATATAAATAAATATATGTACACACACAAATATATAC [XGTACX_site3950] | 7.22
TCTTTCTTATTTTAATGATATTTATTCATTCCAGTT [CACACA_negctrl_site1679] | 6.82
ACTTTTACACTTTGATTGCACTACTAAACCAGTTCA | 8.63
AGAATTATTCTAAAAACACACAATACAAAAGTGCAT [CACACA_site3004] | 7.58
ATAAAAAAAAATATTTGTACACATATTTATATATTA [XGTACX_site8147] | 6.98
AAAAAACACGCGCACACACACACACGCGCCCACATA [CACACA_site7106] | 7.16
AATACTAAAACCCATACACACACATATATATAGTAC [CACACA_site9041] | 7.32
TAATAATTACAAAGAAGTACATAAAAAAAAATTTAT [XGTACX_site4684] | 7.06
CTATATATATATTTCAGTACATATTAAGAATATATA [XGTACX_site4860] | 6.88
TATATAAATATATACACACATACATACATACATATA [CACACA_site3835] | 7.1
TTCTAATAAATGTGTTGTACACCTTTAGCAACTATT [XGTACX_site3235] | 7.01
TATATATATTTATGCACACAAAATATATTATATAAT [CACACA_site5955] | 7.55
AGGAAAAAAGAAAAAACACACATAAATATTTATATA [CACACA_site7446] | 6.82
TATACATCATTTTTCAACAACAAAAAAAAAAAAAAT [CACACA_negctrl_site1185] | 7.05
ATATATATAAATACAACACACATGTAATATATAAAT [CACACA_site5766] | 7.54
ACGTAAAATAGGGACGCATGCACAAATATTTTTAAA [TGCATGCA_site336] | 7.09
TAAATACTTCGTAAAACACACAAGTAGAAAAAAAAA [CACACA_site360] | 6.9
ATTAATTATATATATACACACACATACACCCAAATA [CACACA_site9126] | 7.39

Sequence | gcPBM binding intensity (ln)
AAAAATATAATATATGCACACATACATACATATATA [CACACA_site7915] | 7.07
ATAATTAGTTCAATTTTTTTTTTTTTTTTTTTTTTT [CACACA_negctrl_site1371] | 8.44
TTATTTATTTATTGTTGTACACAAAATGATTCTTAA [XGTACX_site6480] | 7.37
AAACAAAACAAAACATGTACACATTATATATATATA [XGTACX_site3374] | 9.55
AAATAAAATTATAATACATGCATACATACATATATA [TGCATGCA_site69] | 6.87
TATAAATACATACGTACACACAAATATTAAAATATA [CACACA_site5129] | 7.35
ATGTTACTCAGACACACACACATAAAAAAACAAAAA [CACACA_site3249] | 7.31
TGTGTTAATATATGAAGTACACAATACACACTAATT [XGTACX_site5469] | 7.23
TAATATCATTTATGGGGTACCTCCTATTCTTATTTA [XGTACX_site1839] | 6.69
CGAACTGCACTTTTTAGTACTTAATAATTATTTTTT [XGTACX_site2446] | 8.47
TCATATGTTAAATGATGTACATTTAATATAAATAAA [XGTACX_site900] | 6.84
AAAAAAAACATCCTCACACATATATATATATATATA [CACACA_site5166] | 9.26
AATAAAGGAAATAAATAATTTATTTTGTAAAATATG [CACACA_negctrl_site97] | 6.99
ATATATATGAATACATGTACGTATTTGTCTATGTAT [XGTACX_site8306] | 7.07
CAATGTTAACATATTACACACATATGTATTTATAAT [CACACA_site5512] | 7.09
GCATATATTATATATTTATTTATTTTTTTTTTTTAA [GTGCAC_negctrl_site193] | 6.89
TAAATTACATGAAATTGTACATGAATATTAAATATA [XGTACX_site3909] | 6.92
ATATATACAAAGGATTAACACACATATTATTATATA [CACACA_site8563] | 6.95
TTCGTTATAATTGAATTTACAATATGCTTTATAATG [XGTACX_negctrl_site238] | 6.78
AAAATATTTATATTTACACACACATAATACATATAT [CACACA_site32] | 7.01
GTGTACAGTTTTTGCACACATATAAATAAAAAAAAG [CACACA_site3599] | 7.48
TACATATTTTTTATGTGTACATATTTTTTATGTGTG [XGTACX_site444] | 7.32

Sequence | gcPBM binding intensity (ln)
TTCTTTTTTCTTTATGGTACGTGTAATATATATCAA [XGTACX_site7960] | 7.57
CCCAATAATTAAACAACACACATATATATATGTAAT [CACACA_site3084] | 6.95
ATAAAATACAGATAAACACACATATAAACACCCATA [CACACA_site5381] | 7.17
CTTTATTTTTTATACACACACAATATGTATAAATAT [CACACA_site7638] | 7.26
TTTATAAAATTATTTGCATGTAACAATTATAAATTG [TGCATGCA_site1026] | 6.69
TTTTTTTTTCTTTCTCTTTAAATATTAATTAAAAAA [GTGCAC_negctrl_site90] | 6.86
AAAATATAAATATATTGTACTGTTATATAATAAAAT [XGTACX_site2132] | 7.04
AATGTGAAATATAAATGTACATAAATATATATATAT [XGTACX_site8710] | 9.07
TAACTATCATGTATTACACACAATATTTATTATAGA [CACACA_site7301] | 6.95
TAAAAAAAAATAAATACATGCATATAATACATTATA [TGCATGCA_site518] | 6.77
TAATGAGGAAAAAGTGTGTTAAGATTTTATAATTTA [GTGCAC_negctrl_site608] | 6.59
TGAACATGTTAAAATAAACACACAGCTAAGGTTTTT [CACACA_site7934] | 6.62
ATATATATATTAACAATACACACGTGTATACCTTAT [CACACA_site2217] | 8.63
TATCATATAAATACATGTACATATTTGGAAAATAAT [XGTACX_site5373] | 6.96
CATCATAGCATTCCTCGTACAAATATAAACATATCA [XGTACX_site2711] | 7.25
TAGTAAATAACAAAAGGAAAAATTAATGAGGCAAAA [TGCATGCA_negctrl_site526] | 6.85
CATATACACGAACACACACACATATATATATATATA [CACACA_site4437] | 9.85
ATGTTTTGTAAAATGATTAAATATTAAGATTCAATA [CACACA_negctrl_site1743] | 6.7
CTTAGAGTATTTAAATGTACACGTTTGTATATGTAT [XGTACX_site1767] | 6.95
ATAAATAAATACATATGTACATATATATATATATAT [XGTACX_site7145] | 9.53
TCAGTTAATGTATATGTACACACGGGGTGTATATAT [CACACA_site9103] | 6.9
ATATATATATTAAGGGGTACGTAAAAAATTGGGAAG [XGTACX_site7322] | 8.31

Sequence | gcPBM binding intensity (ln)
AAATTATATCCCCTTTGTACTTACAGATCTTTATAC [XGTACX_site8163] | 7.04
AGTGTATTTTTATGTTGTACATGTAATATTTTTGAT [XGTACX_site541] | 7.08
TATATAATATATTAATGTACGTTATATGTATTCCTT [XGTACX_site6140] | 6.97
CTTTTTTTTTAAATATCACACACATATAATATATTC [CACACA_site9222] | 7.01
TAATTCATCATATGCACACACAATACCAAAATGTGC [CACACA_site191] | 7.29
TACAGATATTCATATAAACACACATACAAATTATGT [CACACA_site7929] | 6.96
TATGTGGCACAAAAGGGTACATATAATTTATACAGG [XGTACX_site5499] | 7.16
AAACAGAATGCATATACACACATACAAAAAAGTGCA [CACACA_site6591] | 8.49
TGTGTACCGATATTAAGTTTAACGTTATAAAAATAT [CACACA_negctrl_site1547] | 6.84
TTTCTAAACCGGTACAGTACATATAAAAATAGAATA [XGTACX_site6662] | 7.27
AAAGGACAAAAAAATGCATGCCGTTAAATTATGTAC [TGCATGCA_site512] | 6.99
GTACAAAAATAAATTGCACACATTTTAATAAAAAAA [CACACA_site2130] | 7.16
TATATTTATTTATATACACACATATTTATAAATATA [CACACA_site7047] | 7.02
AGATTTAAATATCATACACACTTTATCTATAATACA [CACACA_site6581] | 6.9
TAGTTGTTTATAACACGTTGACAGAAATGTTATGTA [GTGCAC_negctrl_site624] | 6.95
CAAAATTGACATGACGCACACAAGTGTAGATATTTT [CACACA_site1250] | 6.75
AAGCATTTCCATGGTGGTACTATACAAATAATAATT [XGTACX_site6193] | 6.8
TATAAATAATGTTAAACACACATACCGATATATAAC [CACACA_site7306] | 6.91
ATTTTTTTTTTTAAATGTACATAATATATATATAAT [XGTACX_site2686] | 7.03
TCTCTCTTATAAAATACACACGAACAATCATATTAT [CACACA_site8065] | 7.21
AAAAAAATTTGTATCACACACGTATTATAAAAAAAT [CACACA_site4182] | 6.86
TATTCGTGCAATAATGGTACACTTATAAATTATTCA [XGTACX_site1430] | 7.65
